# According to a collection of fitness landscapes (doi:10.1038/s41467-024-54723-y):
# Over roughly 18,000 sequences, “TetR repression strength (sort-seq, GFP reporter)” has its median near 0.23; the highest 2% begin near 0.68. This is one part of the list.
# Target: TetR (class B, Tn10) (UniProt P04483)
# Experiment: TetR repression strength (sort-seq, GFP reporter) (relative to tetO2 = 1); higher = stronger repression
# Conditions: E. coli
# Summary of the method: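 Escherichia coli SIG10-MAX cells carried a low-copy plasmid library in which eight operator positions were randomized between a constitutive promoter and sfGFP, and TetR was expressed constitutively. After 5 h of growth at 37 °C in LB with 50 µg/mL chloramphenicol, 10^6 cells were FACS-sorted into 13 fluorescence bins, and each bin was Illumina-sequenced. Repression strength was the top bin index plus one minus the read-weighted mean bin, divided by the value for the unaltered operator. Across three independent transformations, only library members with ≥30 reads in every replicate and a CV ≤0.5 were averaged.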
# Chain of UniProt P04483 (P04483 whole entry): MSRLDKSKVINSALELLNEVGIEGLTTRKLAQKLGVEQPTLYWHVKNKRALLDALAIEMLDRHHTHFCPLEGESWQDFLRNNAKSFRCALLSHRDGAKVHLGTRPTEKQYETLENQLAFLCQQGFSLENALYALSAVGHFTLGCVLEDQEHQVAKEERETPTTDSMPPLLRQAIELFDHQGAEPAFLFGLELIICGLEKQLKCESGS
row,Sequence,TetR repression strength
1,TCCCTGGTAGTTCGAGAGA,0.162
2,TCCCGCTCAGTGCTGGAGA,0.253
3,TCCCGATCAGTTGGTGAGA,0.327
4,TCCCAGCCAGTAACGGAGA,0.0633
5,TCCCGCGAAGTAGAGGAGA,0.374
6,TCCCGCAAAGTACGGGAGA,0.226
7,TCCCGTAGAGTGTAAGAGA,0.32
8,TCCCACAGAGTCGGGGAGA,0.0536
9,TCCCGGCGAGTTGACGAGA,0.257
10,TCCCGGTGAGTCTTGGAGA,0.287
11,TCCCGGTGAGTCTCAGAGA,0.317
12,TCCCCCGTAGTGTAAGAGA,0.415
13,TCCCGAACAGTCTAGGAGA,0.304
14,TCCCACGTAGTCAATGAGA,0.157
15,TCCCAATAAGTATCGGAGA,0.263
16,TCCCCGGAAGTGGAGGAGA,0.212
17,TCCCTGTGAGTGATAGAGA,0.456
18,TCCCCAATAGTAACGGAGA,0.218
19,TCCCAAGAAGTTACAGAGA,0.251
20,TCCCTGTGAGTCTCTGAGA,0.227
21,TCCCCGCGAGTGGAGGAGA,0.304
22,TCCCCATTAGTGCGCGAGA,0.385
23,TCCCAGAAAGTCCCTGAGA,0.307
24,TCCCCACGAGTTAAAGAGA,0.413
25,TCCCTGACAGTTGTAGAGA,0.174
26,TCCCGGGGAGTGACCGAGA,0.379

row,Sequence,TetR repression strength
1,TCCCACTGAGTGGTGGAGA,0.433
2,TCCCATATAGTGCGAGAGA,0.274
3,TCCCCGACAGTAACCGAGA,0.0705
4,TCCCTGCAAGTCGGTGAGA,0.214
5,TCCCGACAAGTGAGAGAGA,0.33
6,TCCCGTCGAGTAGAAGAGA,0.334
7,TCCCGTTAAGTAGACGAGA,0.104
8,TCCCACCGAGTAGTGGAGA,0.0853
9,TCCCATGAAGTATAAGAGA,0.167
10,TCCCCGTAAGTAGACGAGA,0.00797
11,TCCCTCTTAGTCAAGGAGA,0.181
12,TCCCCGGTAGTACTAGAGA,0.183
13,TCCCGGTGAGTAGTCGAGA,0.109
14,TCCCTAATAGTAACGGAGA,0.207
15,TCCCTCTCAGTTAAGGAGA,0.234
16,TCCCGCCCAGTTATCGAGA,0.362
17,TCCCAGTGAGTTGACGAGA,0.266
18,TCCCTCGTAGTGATCGAGA,0.274
19,TCCCTGTAAGTCCGCGAGA,0.104
20,TCCCTAACAGTGATTGAGA,0.745
21,TCCCATATAGTTAGCGAGA,0.247
22,TCCCTTGAAGTAGTGGAGA,0.12
23,TCCCACGAAGTGCAGGAGA,0.0355
24,TCCCTTTAAGTGGATGAGA,0.255
25,TCCCGATGAGTACGGGAGA,0.208
26,TCCCGAGCAGTGCCAGAGA,0.684

row,Sequence,TetR repression strength
1,TCCCAAGCAGTACTGGAGA,0.407
2,TCCCATAAAGTAGTTGAGA,0.0306
3,TCCCGCCTAGTAGAAGAGA,0.218
4,TCCCCGAGAGTAGTAGAGA,0.106
5,TCCCCGGTAGTTAGGGAGA,0.00691
6,TCCCGCCCAGTGTTGGAGA,0.535
7,TCCCCGAAAGTGGGCGAGA,0.473
8,TCCCTCGGAGTTATAGAGA,0.381
9,TCCCGGCCAGTATCAGAGA,0.211
10,TCCCACTGAGTTCTCGAGA,0.207
11,TCCCCGGAAGTAGGAGAGA,0.218
12,TCCCAGGCAGTAGATGAGA,0.198
13,TCCCTGTCAGTGGATGAGA,0.346
14,TCCCATTAAGTTTTGGAGA,0.0357
15,TCCCAGGGAGTGGTAGAGA,0.225
16,TCCCGCCTAGTTAACGAGA,0.277
17,TCCCATGAAGTGTACGAGA,0.181
18,TCCCAGATAGTGGCGGAGA,0.279
19,TCCCGTCCAGTCCGCGAGA,0.207
20,TCCCGATCAGTAGAGGAGA,0.223
21,TCCCGCAGAGTCGGAGAGA,0.0256
22,TCCCTTGTAGTTTTAGAGA,0.479
23,TCCCGTATAGTAGCAGAGA,0.187
24,TCCCAGTGAGTCTCAGAGA,0.229
25,TCCCGAACAGTTCGCGAGA,0.216
26,TCCCCTCTAGTTGATGAGA,0.207

row,Sequence,TetR repression strength
1,TCCCCCATAGTGCGGGAGA,0.412
2,TCCCGGGTAGTTCTGGAGA,0
3,TCCCCTCTAGTCGGCGAGA,0.529
4,TCCCGGTAAGTGACGGAGA,0.215
5,TCCCGTATAGTAAGGGAGA,0.115
6,TCCCGGCAAGTAGATGAGA,0.264
7,TCCCGTTGAGTGTAAGAGA,0.277
8,TCCCGGTAAGTGCTGGAGA,0.0785
9,TCCCCTAGAGTTGGTGAGA,0.298
10,TCCCCGGTAGTGTGGGAGA,0.291
11,TCCCATGAAGTGTGTGAGA,0.127
12,TCCCGCTTAGTGGGTGAGA,0.179
13,TCCCCTCCAGTGGTTGAGA,0.264
14,TCCCGGGGAGTAGGAGAGA,0.337
15,TCCCTAAGAGTACCAGAGA,0.429
16,TCCCGGTCAGTAATTGAGA,0.679
17,TCCCACGCAGTAAGTGAGA,0.235
18,TCCCAACTAGTTTGTGAGA,0.131
19,TCCCCGTAAGTCGCTGAGA,0.133
20,TCCCAACGAGTAATTGAGA,0.12
21,TCCCCAACAGTTATGGAGA,0.188
22,TCCCGAATAGTGCCCGAGA,0.127
23,TCCCATAGAGTACTGGAGA,0.169
24,TCCCGAAGAGTGGCCGAGA,0.273
25,TCCCTCCAAGTCTATGAGA,0.192
26,TCCCGTTGAGTCCGAGAGA,0.261

row,Sequence,TetR repression strength
1,TCCCTTTCAGTTCATGAGA,0.426
2,TCCCAGAAAGTGTGGGAGA,0.176
3,TCCCACGAAGTATCCGAGA,0.27
4,TCCCGGTTAGTTTCTGAGA,0.259
5,TCCCGTCCAGTTCAGGAGA,0.229
6,TCCCATGGAGTCTAAGAGA,0.184
7,TCCCTCCAAGTGGGAGAGA,0.14
8,TCCCTGTCAGTTTTCGAGA,0.369
9,TCCCGGACAGTTAAAGAGA,0.274
10,TCCCTGGTAGTGAGAGAGA,0.326
11,TCCCGATGAGTGGCAGAGA,0.326
12,TCCCGTGTAGTAGATGAGA,0.0518
13,TCCCCAATAGTGGGAGAGA,0.0327
14,TCCCTGATAGTGAGGGAGA,0.264
15,TCCCTGGTAGTGTCTGAGA,0.212
16,TCCCGATGAGTGCCTGAGA,0.0302
17,TCCCCATTAGTGGGGGAGA,0.26
18,TCCCACTCAGTCTAAGAGA,0.169
19,TCCCGTGGAGTGTCTGAGA,0.158
20,TCCCTTTCAGTCGGTGAGA,0.596
21,TCCCTCGGAGTCCAGGAGA,0.218
22,TCCCTAGTAGTGTAAGAGA,0.0975
23,TCCCATAGAGTATTGGAGA,0.109
24,TCCCGTACAGTCGGGGAGA,0.698
25,TCCCCCTAAGTAGTCGAGA,0.242
26,TCCCTATTAGTCGTGGAGA,0.153

row,Sequence,TetR repression strength
1,TCCCAAATAGTTAAGGAGA,0.286
2,TCCCAGCGAGTATGGGAGA,0.147
3,TCCCCGAGAGTCAGGGAGA,0.45
4,TCCCTGCTAGTTTGAGAGA,0.128
5,TCCCGACGAGTTCTCGAGA,0.32
6,TCCCCCGCAGTTTTGGAGA,0.104
7,TCCCGCTGAGTGGAGGAGA,0.165
8,TCCCTGGAAGTGACTGAGA,0.109
9,TCCCCAGGAGTCTGGGAGA,0.305
10,TCCCGATAAGTGGGTGAGA,0.276
11,TCCCGACTAGTAACTGAGA,0.613
12,TCCCGAGGAGTCGCCGAGA,0.0695
13,TCCCCGCCAGTTTTGGAGA,0.0554
14,TCCCCTAGAGTATCTGAGA,0.483
15,TCCCACATAGTGACGGAGA,0.242
16,TCCCAGCCAGTTGTCGAGA,0.231
17,TCCCTCGTAGTATGCGAGA,0.17
18,TCCCGTGCAGTATGGGAGA,0.227
19,TCCCAACGAGTCGTTGAGA,0.269
20,TCCCAATAAGTGATCGAGA,0.42
21,TCCCTATCAGTGGTAGAGA,1.01
22,TCCCGGAGAGTCGAGGAGA,0.267
23,TCCCTTAGAGTGCGGGAGA,0.0573
24,TCCCTCCGAGTTCTGGAGA,0.295
25,TCCCTGCCAGTCTCAGAGA,0.0342
26,TCCCGCTTAGTCGACGAGA,0.131

row,Sequence,TetR repression strength
1,TCCCGCGGAGTGGCAGAGA,0.134
2,TCCCATACAGTTAGTGAGA,0.173
3,TCCCACTAAGTTGCGGAGA,0.0587
4,TCCCCAGTAGTGATCGAGA,0.207
5,TCCCAGGGAGTGACCGAGA,0.104
6,TCCCGGGCAGTGCAGGAGA,0.54
7,TCCCACACAGTGTGTGAGA,0.11
8,TCCCTCTGAGTCATCGAGA,0.295
9,TCCCAATCAGTCGAGGAGA,0.202
10,TCCCACCGAGTTGATGAGA,0.352
11,TCCCGCATAGTCCAGGAGA,0.389
12,TCCCTGTGAGTGATGGAGA,0.302
13,TCCCAGCCAGTACTCGAGA,0.543
14,TCCCTCATAGTGTTAGAGA,0.306
15,TCCCTGCGAGTGACGGAGA,0.104
16,TCCCCCCTAGTCGATGAGA,0.564
17,TCCCCGTGAGTTCGAGAGA,0.158
18,TCCCTCAGAGTATCGGAGA,0.279
19,TCCCATGAAGTAGACGAGA,0.259
20,TCCCGTTAAGTGCCAGAGA,0.207
21,TCCCCAACAGTGTAGGAGA,0.174
22,TCCCAGTGAGTACCTGAGA,0.33
23,TCCCTTTCAGTCCCAGAGA,0.0305
24,TCCCTGACAGTAAATGAGA,0.317
25,TCCCGTAGAGTGCAGGAGA,0.362
26,TCCCCCAAAGTTGTGGAGA,0.319

row,Sequence,TetR repression strength
1,TCCCAAAGAGTATAGGAGA,0.304
2,TCCCAAGAAGTGACCGAGA,0.221
3,TCCCTGGTAGTCTGGGAGA,0.242
4,TCCCGTCCAGTTGTCGAGA,0.283
5,TCCCGGCGAGTTGTCGAGA,0.243
6,TCCCGCTAAGTCAATGAGA,0.566
7,TCCCAATGAGTTTACGAGA,0.325
8,TCCCCACCAGTTGGGGAGA,0.151
9,TCCCTTAGAGTGGGGGAGA,0.0915
10,TCCCTGTCAGTGATTGAGA,0.592
11,TCCCCGAGAGTTGGGGAGA,0.104
12,TCCCCGTCAGTCGAAGAGA,0.207
13,TCCCTGCTAGTTTCCGAGA,0.417
14,TCCCCAGGAGTGCGGGAGA,0.108
15,TCCCCAACAGTAGAGGAGA,0.56
16,TCCCGGTCAGTTTTAGAGA,0.594
17,TCCCATGTAGTCAGCGAGA,0.32
18,TCCCGGCTAGTGAGTGAGA,0.405
19,TCCCTGTGAGTTGACGAGA,0.174
20,TCCCTCGGAGTCGGGGAGA,0.195
21,TCCCCCAAAGTTGCAGAGA,0.635
22,TCCCTGAAAGTGGCCGAGA,0.566
